Some of the results follow. Cleavage of a single-stranded DNA pool by Rep nickase domains was read by sequencing (1 h at 37 °C, 3 µM enzyme); the outer parts of the 90-letter strands are left off. Uncut reads are compared with the no-enzyme pool on a log2 scale; strong cutting gives strongly negative numbers. There is no active / inactive call. Shares of all reads are compared; where an enzyme cuts many sequences, the uncut ones exceed 0.
Columns and labels:
Experiment in all cases: uncleaved DNA left, log2 of reads against the no-enzyme library (log2 ratio); higher = less cleavage (more negative = more Rep cleavage of the k-mer); sequences stand for … in CTCGTCCG…ACCGGAGA
[1] = tested on: T1, Rep nickase domain of Muscovy duck circovirus
T1 sequence (residues 1-111, tag not shown): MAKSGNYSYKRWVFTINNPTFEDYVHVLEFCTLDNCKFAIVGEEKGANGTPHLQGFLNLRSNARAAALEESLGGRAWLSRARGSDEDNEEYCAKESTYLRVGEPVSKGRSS
Experimental: (§1)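 A pool of 90-nt single-stranded DNAs with seven random bases just before the constant AC of the nick site (name = the seven bases) was cut by 3 µM recombinant His6-SUMO-tagged Rep nickase domain (300 nM DNA, 50 mM HEPES pH 8.0, 50 mM NaCl, 1 mM MnCl2, 1 h, 37 °C, three replicates). Uncut DNA was amplified and sequenced.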

[2] = tested on: T2, Rep nickase domain of banana bunchy top virus
T2 sequence (residues 1-94, tag not shown): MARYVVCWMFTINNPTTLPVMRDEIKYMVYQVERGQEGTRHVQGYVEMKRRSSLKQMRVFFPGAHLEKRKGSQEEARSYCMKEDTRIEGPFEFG
Experimental: as §1

[3] = tested on: T3, Rep nickase domain of cabbage leaf curl virus
T3 sequence (residues 1-116, tag not shown): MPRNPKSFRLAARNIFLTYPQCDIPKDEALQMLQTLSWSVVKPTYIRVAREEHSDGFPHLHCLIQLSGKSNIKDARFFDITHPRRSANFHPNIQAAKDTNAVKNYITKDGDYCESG
Experimental: as §1

[4] = tested on: T4, Rep nickase domain of chickpea chlorotic dwarf virus
T4 sequence (residues 1-124, tag not shown): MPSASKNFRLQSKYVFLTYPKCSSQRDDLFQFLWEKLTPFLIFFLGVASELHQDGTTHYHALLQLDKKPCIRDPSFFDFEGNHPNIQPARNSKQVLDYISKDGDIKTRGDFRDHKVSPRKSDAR
Experimental: as §1

[5] = tested on: T5, Rep nickase domain of faba bean necrotic yellows virus
T5 sequence (residues 1-98, tag not shown): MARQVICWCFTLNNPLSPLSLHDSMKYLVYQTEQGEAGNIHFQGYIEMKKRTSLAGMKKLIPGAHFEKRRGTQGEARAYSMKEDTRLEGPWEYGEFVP
Experimental: as §1

[6] = tested on: T6, Rep nickase domain of maize striate mosaic virus
T6 sequence (residues 1-117, tag not shown): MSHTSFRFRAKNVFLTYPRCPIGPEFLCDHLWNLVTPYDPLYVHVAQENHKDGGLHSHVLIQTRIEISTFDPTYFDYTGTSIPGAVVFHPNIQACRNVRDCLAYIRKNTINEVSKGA
Experimental: as §1

[7] = tested on: T7, Rep nickase domain of porcine circovirus 2
T7 sequence (residues 2-116, tag not shown): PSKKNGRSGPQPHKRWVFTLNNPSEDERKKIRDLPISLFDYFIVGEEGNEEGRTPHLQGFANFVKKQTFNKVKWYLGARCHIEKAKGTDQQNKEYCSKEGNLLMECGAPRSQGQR
Experimental: as §1

[8] = tested on: T8, Rep nickase domain of tomato yellow leaf curl virus
T8 sequence (residues 1-136, tag not shown): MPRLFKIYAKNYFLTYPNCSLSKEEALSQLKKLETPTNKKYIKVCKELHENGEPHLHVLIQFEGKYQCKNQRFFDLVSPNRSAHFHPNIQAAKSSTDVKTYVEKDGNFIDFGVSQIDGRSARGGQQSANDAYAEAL
Experimental: as §1

[9] = tested on: T9, Rep nickase domain of wheat dwarf virus
T9 sequence (residues 1-137, tag not shown): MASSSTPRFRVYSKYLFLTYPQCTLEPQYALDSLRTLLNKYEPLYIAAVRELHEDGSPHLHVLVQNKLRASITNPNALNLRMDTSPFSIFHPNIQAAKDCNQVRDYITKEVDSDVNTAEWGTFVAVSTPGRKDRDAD
Experimental: as §1

Sequence	uncleaved DNA left (log2) [1]	uncleaved DNA left (log2) [2]	uncleaved DNA left (log2) [3]	uncleaved DNA left (log2) [4]	uncleaved DNA left (log2) [5]	uncleaved DNA left (log2) [6]	uncleaved DNA left (log2) [7]	uncleaved DNA left (log2) [8]	uncleaved DNA left (log2) [9]
ATCTTGC	-0.0409	0.00866	-0.822	-0.145	-0.00821	-0.931	0.119	-0.0204	-0.105
AGAGTCT	-0.0103	-0.0786	0.194	-0.281	-0.00458	0.783	-0.0879	-0.0589	-0.0145
TTACAGC	-0.0264	-0.177	-0.487	-1.6	-0.0695	-1.13	0.0828	-0.0374	-0.113
AGCTAGC	-0.00789	-0.0176	-0.0546	0.102	-0.0201	-0.664	-0.0319	0.0222	-0.137
CATTTAC	0.0849	-0.0163	-0.27	-2.16	0.0509	-0.907	-0.0884	0.0697	-0.00893
CGGCTAT	-0.0114	0.0154	0.191	0.845	0.0183	1.04	0.018	0.221	0.0302
GTAGGTA	0.00314	0.116	0.342	0.926	-0.0372	1.55	0.0348	-0.0132	0.0204
GGACATC	-0.0242	0.0512	0.817	1.9	-0.0365	2.26	0.161	-0.0951	0.208
GTGGGGG	0.161	0.00947	0.341	0.68	0.0184	0.73	0.146	-0.0727	-0.063
ATTGCTG	0.065	0.0238	-0.348	-0.124	0.0131	-0.797	0.122	-0.00335	-0.0769
ACAGAGT	0.113	-0.0375	-0.377	-0.792	0.049	-1.06	0.102	0.0532	0.0604
CGGACAG	0.0723	0.185	0.908	2.01	0.196	2.26	0.248	0.176	0.262
ACGAAAC	0.116	0.0223	-0.115	-0.0834	0.00535	-0.663	0.177	-0.0944	0.132
CCAGTAT	0.0973	-0.0214	0.0443	-0.193	0.0388	0.0863	0.0113	-0.0142	-0.0581
AGACTCC	-0.042	0.0227	0.676	1.47	-0.0362	1.9	-0.013	-0.0716	0.0814
ACAGAAA	0.0483	0.0814	-0.0407	0.044	0.149	-0.6	0.212	0.0315	0.0536
CGCAGCC	-0.0698	-0.0599	0.147	0.451	-0.155	0.426	-0.086	-0.166	-0.158
TTCCGCA	0.0331	-0.0349	-0.032	-0.596	-0.00166	-0.768	-0.0896	0.0221	-0.0505
TCTGGTA	0.0429	-0.065	0.149	-0.0683	0.0579	0.496	0.0142	0.0166	0.0441
ACCCTTT	-0.0907	-0.0364	-0.205	-2.02	0.0512	-0.637	-0.573	-0.0416	-0.133
TAACGTC	0.0469	-0.148	-1.15	-2.82	-0.0706	-0.849	-0.102	-0.0599	-0.235
TTTCAAG	0.0693	-0.0654	-0.87	-0.793	-0.0171	-1.24	0.0666	-0.0654	-0.173
TATTCTT	-3.99	-3.95	-2.78	-3.04	-1.01	-0.447	-4.08	0.0087	-1.99
TTCGTGT	0.0513	0.00261	-0.128	-0.801	0.0481	-0.829	0.00478	-0.00568	0.0198
CCCTGCC	-0.164	-0.118	-0.416	-0.566	-0.074	-0.85	-0.209	-0.0505	-0.13
GCAACCC	-0.202	0.0869	0.0471	-0.246	-0.123	-0.0901	-1.25	-0.0697	0.0504
GTAAACC	0.00944	0.088	0.27	0.64	-0.0193	1.38	0.00414	-0.00747	0.0553
TATCTGT	-0.015	-0.0316	-0.0418	-0.602	-0.0335	0.289	-0.207	0.0119	-0.0564
CAAGCAT	0.0627	-0.0104	-0.134	-0.617	-0.0469	-0.194	0.0624	-0.0683	0.0854
ATTATCC	-0.102	0.0394	0.0253	-0.00189	0.0259	-0.431	0.0152	0.0387	0.112

From the supplement of paper PMC7826260
